# Source: the supplement of paper PMC10126150
# Values marked as one replicate rest on one cluster of the flow cell; about a third of the high ones do not repeat.
# System: ATP
# Assay: switch fluorescence ratio, 500 uM ATP over buffer (Cy3 cluster intensity, sum of 5 cycles each) (fold (ratio)); higher = stronger signal-on switching upon ATP binding; sequences stand for … in TCGTCGGCAGCGTCAGATGTGTATAAGAGACAGTTTTTTTTTTTTTTTTTTTTTTTTT…TC
# Conditions: aptamer strand: ATP DNA aptamer (quencher-CACCTGGGGGAGTATTGCGGAGGAAGG + anchor), 100 nM annealed; ATP concentration: 500 uM; one replicate
# Outline: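 Five buffer/ATP imaging cycles were run on Cy3-labelled switching-strand clusters on a modified Illumina MiSeq flow-cell, with NaOH stripping and re-annealing between cycles. In each cycle, clusters annealed to 100 nM quencher-labelled ATP aptamer were imaged in selection buffer, then after 15 min with 500 uM ATP at 22 °C. Per cluster, the fluorescence ratio is summed target-cycle over summed buffer-cycle Cy3 intensity, averaged per switch-domain sequence. Only clusters within 100-1000 RFU were kept.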
# 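Note: ATP exposure 15 min at 22 °C before imaging.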
row,Sequence,switch fluorescence ratio
1,TTTCCCAAGG,1.36
2,TTTCCCCTAC,1.07
3,TTTCCCGCCG,1.06
4,TTTCCCGGTA,1.04
5,TTTCCCTACC,1.07
6,TTTCCCTGAA,0.978
7,TTTCCCTTGG,1.03
8,TTTCCGTCAA,4.73
9,TTTCCTAA,0.986
10,TTTCCTACCT,1.05
11,TTTCCTGTAG,1.02
12,TTTCCTTACA,1.07
13,TTTCGACATT,1.1
14,TTTCGACCCT,1.07
15,TTTCGAGTGG,1.03
16,TTTCGATCGC,1.21
17,TTTCGCCGCG,1.25
18,TTTCGGCTGG,0.977
19,TTTCGGTTTA,1.01
20,TTTCGTCCCC,1.05
21,TTTCGTTCCT,1.09
22,TTTCGTTGGG,0.98
23,TTTCTAATCT,0.929
24,TTTCTACGCT,1.12
25,TTTCTATCTA,1.01
26,TTTCTCCTAG,1.02

row,Sequence,switch fluorescence ratio
1,TTTCTGAGAC,0.991
2,TTTCTGCGGT,1.48
3,TTTCTTCT,0.975
4,TTTCTTCTCC,1.16
5,TTTCTTTCCA,0.967
6,TTTGAAAAAG,0.973
7,TTTGAATTCT,1.01
8,TTTGACGCTG,1.01
9,TTTGACTAGC,0.991
10,TTTGAGAACG,0.974
11,TTTGAGCCGA,1.04
12,TTTGATCAAC,1.02
13,TTTGATCCTA,1.05
14,TTTGATGCTT,0.995
15,TTTGATTGG,0.971
16,TTTGCAAACG,0.995
17,TTTGCACACG,1.04
18,TTTGCACTCC,1.44
19,TTTGCATGTT,1.01
20,TTTGCCCGCT,1.01
21,TTTGCCCTGC,0.989
22,TTTGCCGCAT,1.15
23,TTTGCGAAA,1.07
24,TTTGCGAGGC,1.12
25,TTTGCGTCTT,0.996
26,TTTGCTAAGT,0.962

row,Sequence,switch fluorescence ratio
1,TTTGCTACC,1.05
2,TTTGCTTAAG,0.99
3,TTTGGAAACT,1.06
4,TTTGGAAAGA,1.01
5,TTTGGAAATA,1.04
6,TTTGGACCTG,1
7,TTTGGAGAGC,1.12
8,TTTGGATC,1.04
9,TTTGGCACCC,0.959
10,TTTGGCAGCG,0.97
11,TTTGGCATCC,1.06
12,TTTGGCATCT,0.993
13,TTTGGCCCTC,1.03
14,TTTGGGCCAG,1.03
15,TTTGGGCCTA,1.03
16,TTTGGGCTT,0.989
17,TTTGGGGAG,1.02
18,TTTGGGGGT,0.996
19,TTTGGTGTGT,0.981
20,TTTGGTTAAC,1.04
21,TTTGTACTGT,1.04
22,TTTGTAGGT,0.994
23,TTTGTAGTAA,3.74
24,TTTGTCGCG,1.02
25,TTTGTCGTCA,1.04
26,TTTGTCTGGG,1.01

row,Sequence,switch fluorescence ratio
1,TTTGTGCACG,0.961
2,TTTGTGGCCG,1.12
3,TTTGTTCATA,0.921
4,TTTTAAACGG,0.971
5,TTTTAAGG,0.964
6,TTTTACCAAT,1.03
7,TTTTACGGCT,0.957
8,TTTTACTCGG,1
9,TTTTAGAACG,1.03
10,TTTTAGATAC,2.1
11,TTTTAGATCC,0.973
12,TTTTAGCACT,1.08
13,TTTTAGCTGC,1.08
14,TTTTAGGACT,0.998
15,TTTTAGTTGA,0.974
16,TTTTATACAT,1.08
17,TTTTATCGG,0.997
18,TTTTATTCCC,0.967
19,TTTTCACCCC,1.13
20,TTTTCATATT,1.03
21,TTTTCATGTC,0.942
22,TTTTCCACTG,1.03
23,TTTTCGACGT,1.26
24,TTTTCGAGG,0.992
25,TTTTCGGAAG,1.04
26,TTTTCGTTAT,0.988

row,Sequence,switch fluorescence ratio
1,TTTTCGTTGC,1.05
2,TTTTCTGAAA,1.02
3,TTTTCTGAGT,1.01
4,TTTTCTGCAC,1.32
5,TTTTGAAAAT,0.983
6,TTTTGAATAC,1.25
7,TTTTGACTCT,0.983
8,TTTTGATATG,0.989
9,TTTTGATTCA,0.993
10,TTTTGCATAC,3.48
11,TTTTGCATGT,1.02
12,TTTTGCCGAA,0.993
13,TTTTGGACAC,0.974
14,TTTTGGACG,1.01
15,TTTTGTATAC,1.01
16,TTTTGTCTAC,1.06
17,TTTTGTGAAC,1.01
18,TTTTTAGT,0.946
19,TTTTTAGTT,0.959
20,TTTTTATGTC,1.03
21,TTTTTCGGAG,1.05
22,TTTTTCTGGC,0.942
23,TTTTTGAACA,1.01
24,TTTTTGACGC,0.98
25,TTTTTGCTT,0.975
26,TTTTTTCTT,0.995
